Test results as given in article PMC12660392 (2025).

T1: IL-2 receptor on PHA-activated PBMC (Homo sapiens, UniProt P01589)
T1 chain 1: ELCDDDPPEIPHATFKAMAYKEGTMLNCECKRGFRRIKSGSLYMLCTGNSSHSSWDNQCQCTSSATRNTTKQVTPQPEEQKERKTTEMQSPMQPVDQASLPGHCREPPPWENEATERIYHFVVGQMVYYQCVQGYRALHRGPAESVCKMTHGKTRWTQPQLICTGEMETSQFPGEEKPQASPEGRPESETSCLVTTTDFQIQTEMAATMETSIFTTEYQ
T1 chain 2: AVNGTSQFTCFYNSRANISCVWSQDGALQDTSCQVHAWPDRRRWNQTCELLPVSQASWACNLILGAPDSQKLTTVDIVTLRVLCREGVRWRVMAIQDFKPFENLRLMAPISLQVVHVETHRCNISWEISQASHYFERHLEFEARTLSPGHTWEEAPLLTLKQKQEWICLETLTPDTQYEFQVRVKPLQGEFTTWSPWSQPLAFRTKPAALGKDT
T1 chain 3: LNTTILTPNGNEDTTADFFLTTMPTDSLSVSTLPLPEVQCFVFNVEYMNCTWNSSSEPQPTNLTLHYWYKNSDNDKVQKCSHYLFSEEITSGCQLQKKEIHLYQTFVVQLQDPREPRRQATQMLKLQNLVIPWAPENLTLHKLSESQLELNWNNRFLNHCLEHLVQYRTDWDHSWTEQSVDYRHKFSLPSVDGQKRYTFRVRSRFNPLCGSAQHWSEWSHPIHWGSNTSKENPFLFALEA

B1: Aldesleukin (NODAGA-desIL2) (protein)
chain: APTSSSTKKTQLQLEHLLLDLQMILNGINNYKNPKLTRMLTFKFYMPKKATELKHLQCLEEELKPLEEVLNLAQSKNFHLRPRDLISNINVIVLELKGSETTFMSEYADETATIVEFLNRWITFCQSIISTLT
B2: Aldesleukin (THP-desIL2) (protein)
chain: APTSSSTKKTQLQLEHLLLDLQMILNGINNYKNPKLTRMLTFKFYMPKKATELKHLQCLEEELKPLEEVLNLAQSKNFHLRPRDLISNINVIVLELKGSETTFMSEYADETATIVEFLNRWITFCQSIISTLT

Key:
[1] = biological target: T1, IL-2 receptor on PHA-activated PBMC; assay: LigandTracer kinetic cell binding assay (single experiment, Fig. 2C)
[2] = biological target: T1, IL-2 receptor on PHA-activated PBMC; assay: LigandTracer kinetic cell binding assay (single experiment, Fig. 2B)

Row | Binder | Kd [1] | Kd [2]
1 | B1 | 48.7 nM | 
2 | B2 |  | 0.863 nM
